Measured values from PubChem BioAssay AID493208 (National Center for Advancing Translational Sciences (NCATS), 2011).
The whole screen tested about 44,000 compounds, of which about 340 (0.77%) were called active. Inconclusive results (about 5%) are left out. Calls come from the whole dose curve; as a rule, active = well fitted inhibition curve with a large enough effect; inconclusive = small, poorly fitted or top-dose-only effect; inactive = flat fitted curve, though single readings scatter. The list shows a part of the results.

test: Acumen qHTS Assay for Inhibitors of the mTORC1 Signaling Pathway in MEF (Tsc2-/-, p53-/-) Cells: Sytravon; conditions: phospho-rpS6 immunofluorescence/PI, 24 h; series mostly up to 38.3 µM; activity change, negative = inhibition: at the top concentration;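 note: plate controls were DMSO for no effect and rapamycin for full effect; nearly all actives have a fitted effect of over 50% in size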
Procedure, shortened: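 Tsc2-/-, p53-/- mouse embryonic fibroblasts (empty-vector line) exposed to compound 24 hrs at 37 C, fixed, immunostained for phospho-rpS6 and counterstained with propidium iodide. Acumen laser scanning gives % positive cells from Alexa 488/PI ratio, thresholded using 7.5 nM rapamycin; PI count gives viability.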

Activity change, negative = inhibition, inactive:
Cc1c(NC(=O)Cc2ccccc2)cccc1-c1nc2cccnc2s1 -8.12%, Cn1nc(-c2ccccc2F)c2cc(C(=O)N3CCN(c4ccccc4F)CC3)sc21 -14.1%, CCOc1ccc(NC(=O)c2cc3nc(-c4ccc(OC)cc4)cc(C(F)(F)F)n3n2)cc1 -0.209%, COCCCNc1nc2c(-c3cccc(Br)c3)nnn2c2ccccc12 -1.08%, O=C(CSc1nc2c([nH]c3ccccc32)c(=O)n1-c1ccc(F)cc1)Nc1ccc2c(c1)OCCO2 -2.02%, CCS(=O)(=O)N1CCc2cc(C(=O)NCc3ccc(C)cc3)ccc21 -0.494%, CCC(Cn1nnc2ccccc2c1=O)NC(=O)Nc1ccccc1Cl (stereo not given) -8.7%, Cc1ccc(S(=O)(=O)N(CC(O)Cn2c3ccccc3c3ccccc32)c2cccc(C(=O)NCCO)c2)cc1 (stereo not given) 1.77%, COc1ccc(-c2nc3n(n2)C(c2ccccc2)C(C(=O)Nc2cccnc2)=C(C)N3)cc1 (stereo not given) 1.24%, COCCNC(=O)CN1C(=O)CCn2nc(-c3cn(C)c4ccccc34)cc21 -4.03%, CCOC(=O)N1CCN(CCC(=O)Nc2cccc(F)c2)CC1 0.402%, Cc1c(C(=O)NCc2ccc(Cl)cc2)sc2nc3n(c(=O)c12)CCC3 3.38%, Cc1ccc(NC(=O)CC(c2ccc(F)cc2)N2Cc3ccccc3C2=O)cc1C (stereo not given) -7.79%, Cc1c(C(=O)O)oc2c1-c1nn(Cc3ccccc3Cl)cc1CC2 -2.93%, COc1cc([C@@H]2Nc3c(F)cccc3[C@@H]3C=CC[C@@H]32)cc(Br)c1OC -0.237%, COc1ccc2c(Sc3ccc(C)cc3)c(C(=O)NC(C)c3ccccc3)[nH]c2c1 (stereo not given) -13.1%, CCc1ccccc1NC(=O)c1ccc(F)c(S(=O)(=O)N2CCN(c3ccccc3OC)CC2)c1 1.28%, Cc1ccc(Sc2ccc(N3CCC(C(=O)Nc4ccc(Cl)cc4)CC3)nn2)cc1 -2.64%, CCc1ccc(C(=O)c2cn(CC(=O)NCc3ccc(C)cc3)c3nc(C)ccc3c2=O)cc1 5.42%, Cc1ccc(CNC(=O)Cn2c(-c3cccs3)cc3cc(Cl)ccc32)cc1 -5.21%, O=C(Nc1nc2c(F)cccc2s1)c1ccc2c(c1)OCCO2 -1.78%, CCOC(=O)CCNC(=O)N1CCN(S(=O)(=O)c2ccc3c(ccn3C)c2)CC1 -16.7%, CCc1nn(CC(=O)NCCCc2ccccc2)c(=O)c2cc3cc(F)ccc3n12 -1.74%, Cc1ccc(N2C(=O)C(CC(=O)Nc3ccc(F)cc3)N(Cc3ccc4c(c3)OCO4)C2=O)cc1 (stereo not given) 0.978%, Cc1ccc(CNC(=O)c2ccc3c(c2)NC(=O)C(CS(=O)(=O)Cc2cccc(F)c2)N3)cc1 (stereo not given) 2.87%, CC(=O)c1ccc(NC(=O)c2cc3c(=O)oc4ccc(C)cc4c3s2)cc1 -0.0657%, O=C(CSCn1nnc2c(=O)[nH]c(Cc3ccc(F)cc3)nc21)Nc1ccccc1 7.41%, Cc1cccc(N2C(=O)C(CC(=O)Nc3cccc(F)c3)N(CCc3ccncc3)C2=O)c1 (stereo not given) -2.25%, Cc1ccc(C(=O)Nc2ccc(S(=O)(=O)N(Cc3ccccc3)c3ccccc3)cc2)cc1 -18.1%, O=S(=O)(c1ccc(Cl)cc1)c1nc(-c2ccccc2F)oc1NCc1ccccc1 -3.29%, COc1ccc(NC(=O)C2=CC(c3ccc4c(c3)OCO4)=NS(=O)(=O)N2C)cc1OC -1.76%, CCOC(=O)c1c(C)oc2ccc(N(C(C)=O)S(=O)(=O)c3c(C)cc(C)cc3C)cc12 4.18%, COC(=O)c1cc2sccc2n1Cc1ccc(F)cc1Cl -0.176%, COc1ccc(OC)c(CC2C(=O)Nc3ccc(Br)cc32)c1 (stereo not given) -8.44%, Cc1cc(N2CCN(c3cc(Cl)ccc3C)CC2)n2nc(-c3ccccc3)nc2n1 -11.5%, Cc1cc(F)ccc1S(=O)(=O)Nc1cc2c(C(=O)O)c(C)oc2c2ccccc12 -14%, N#Cc1ccc(NC(=O)C2Cc3ccccc3CN2S(=O)(=O)c2ccc(F)cc2)cc1 (stereo not given) -12.9%, CCCCNC(=O)C1CCC(Cn2c(=O)c3sccc3n(CC(=O)Nc3ccccc3)c2=O)CC1 (stereo not given) -13.1%, O=C(COc1ccc(F)cc1)Nc1ccc2nc(SCCOc3ccccc3)sc2c1 -2.7%, O=C(Nc1ccccc1C(=O)OCc1cc(=O)n2ccsc2n1)c1ccccc1Cl 2.11%, COCCn1c(=N)c(C(=O)NC2CCCC2)cc2c(=O)n3cc(C)ccc3nc21 3.28%, CCN(CC)CCNC(=O)c1cn(CC)c2ccc(S(=O)(=O)N3CCc4ccccc4C3)cc2c1=O -1.46%, CCC(=O)N1CCc2cc(Br)cc(S(=O)(=O)N3CCN(c4cc(C)ccc4C)CC3)c21 -12.7%, CCC(=O)N1CCc2cc(Br)cc(S(=O)(=O)CCC(=O)Nc3ccc(Cl)cc3)c21 -0.77%, Cc1cccc(C)c1NC(=O)CCC(=O)N1Cc2ccccc2Oc2ncccc21 5.57%, CCOC(=O)c1cc(-c2ccc(C)cc2)n(CCC(=O)NCCc2ccc(C)cc2)c1C 1.47%, COc1ccc(Oc2nc3c(c(=O)n(C)c(=O)n3C)n2Cc2ccc(Cl)cc2Cl)cc1 -12.4%, O=C(NC1CCN(Cc2ccccc2)CC1)c1ccc(Cn2c(=O)c3ccccc3n(Cc3cccc(F)c3)c2=O)cc1 -9.89%, O=C(Cc1ccc(NC(=O)N2CCSc3ncccc32)cc1)NCc1cccc(Cl)c1 -4.5%, Cc1cccc(C(=O)NCc2nc3ccccc3n2Cc2ccccc2Cl)c1 0.128%, CCOc1ccccc1CNC(=O)c1oc2c(c1C)-c1nn(Cc3cccc(Cl)c3)cc1CC2 -3.39%, Cc1ccc2c(=O)c(C(=O)c3ccc(Cl)cc3)cn(CC(=O)Nc3ccc4c(c3)OCCO4)c2n1 6.77%, O=C(Nc1cccc(OCc2cc(=O)n3ccccc3n2)c1)Nc1cccc(C(F)(F)F)c1 5.61%, Cc1ccc(NC(=O)C2CCCN2S(=O)(=O)c2cccc3cccnc23)c(C)c1 (stereo not given) -3.82%, COc1ccc(Cl)cc1C(=O)NCCS(=O)(=O)N1CCN(c2ccccc2OC)CC1 -19.6%, COc1cccc(NC(=O)Cn2c(=O)n(Cc3ccc(C(=O)NCc4ccc(C)cc4)cc3)c(=O)c3ccccc32)c1 0.327%, CCOc1ccc(Cn2c(CNS(=O)(=O)c3ccc(C(C)(C)C)cc3)nc3cccnc32)cc1 0.275%, CCOC(=O)c1c(C)n(-c2ccccc2)c2ccc(OC(=O)c3c(F)cccc3F)cc12 4.91%, COc1ccc(CCNC(=O)C2c3ccccc3C(=O)N2Cc2ccccc2)cc1OC (stereo not given) 12.5%, CCOc1ccc(CNC(=O)C2=Cc3cccc(OC)c3OC2)cc1 -0.108%, Cc1ccccc1OCC(=O)Nc1ccc2nc(SCC(=O)N3CCOCC3)sc2c1 -12.5%, CCOc1ccc(NC(=O)CCNS(=O)(=O)c2cccs2)cc1 0.324%, Cc1ccc(-c2nn(CCC(N)=O)c(=O)c3ccccc23)cc1 -2.05%, COc1c(C)cc(NS(=O)(=O)c2ccc3c(c2)OCCO3)cc1C -12.1%, COc1ccc2c(C)c(CCC(=O)NCc3ccccc3Cl)c(=O)oc2c1C -2.36%, Cc1cc(Nc2ccccc2O)nc(C)n1 0%, Cc1ccc(C)c(S(=O)(=O)n2nc(C)c(S(=O)(=O)N3CCCCCC3)c2C)c1 -6.13%, Cc1cccc(C)c1-n1ncc(C(=O)NCCN2CCN(C)CC2)c1C1CCN(C(=O)OC(C)(C)C)CC1 -9.95%, CCOc1ccc(C(=O)NCc2nc(-c3ccc(Cl)cc3)no2)cc1OCC -5.79%, CCOC(=O)c1cnc2ccc(OC)cc2c1Nc1cccc(C(C)=O)c1 3.68%, Cc1cccc(NC(=O)C2CCN(S(=O)(=O)c3c(C)noc3/C=C/c3ccco3)CC2)c1 2.87%, CCN(Cc1ccccc1)S(=O)(=O)c1ccc(F)c(C(=O)Nc2cc(C)ccc2OC)c1 0%, Fc1ccc(CNc2nc3c(-c4ccc(F)cc4)nnn3c3ccccc23)cc1 -3.09%, COc1cc(C(=O)NCc2ccc3c(c2)CCN3C(=O)c2ccncc2)cc(OC)c1OC 4.46%, Cc1ccc(NC(=O)NCCc2c(C)nn(C)c2C)c(Cl)c1 0%, CCCCSc1ncnc2c1sc1nc(N3CCOCC3)c3c(c12)CCCC3 6.37%, COc1cccc(/C=C/c2nc(C#N)c(N(C)Cc3ccccc3)o2)c1 -10.8%, COc1ccc(-c2noc(CSCC(=O)Nc3ccc(C)cc3Br)n2)cc1OC 0.264%, COCCCNC(=O)CN1C(=O)c2c(c3ccccc3n2C)C1c1ccc(OC)cc1 (stereo not given) -7.17%, Cc1ccc(NC(=O)c2cc(-c3ccc4c(c3)OCO4)on2)cc1 -2.8%, CCOc1ccc(CNC(=O)COc2cc(=O)n(C)c3ccccc23)cc1 1.16%, CC1=C(C(=O)Nc2ccc(C)cc2)C(c2ccccc2Cl)n2nnnc2N1 (stereo not given) -16.1%, COc1cc(NC(=O)c2ccc(C(=O)Nc3cc(OC)c(Cl)cc3OC)cc2)c(OC)cc1Cl -7.68%, CCCN1CCN(CCCNC(=O)Cn2nc(C)n3c(cc4cc(F)ccc43)c2=O)CC1 -3.66%, Cc1cccc2c1-c1sc(C(=O)NCc3ccccc3Cl)cc1CO2 0.31%, COc1cccc(NC(=O)c2cc(CN3CCOCC3)on2)c1 0%, CCC(=O)N1CCc2cc(Br)cc(S(=O)(=O)CCC(=O)NCc3ccccc3)c21 -6.78%, COc1ccccc1CNC(=O)c1c2c(nc3ccccc13)C(=O)N(C1CCCCC1)C2 -6.78%, Cc1nn2c(=O)cc(COC(=O)c3ccc(C(C)(C)C)cc3)nc2s1 7.79%, CSc1cccc(NC(=O)CN(C)S(=O)(=O)c2ccc3c(c2)n(C)c(=O)c(=O)n3C)c1 -0.422%, O=c1ccc2cc(S(=O)(=O)N3CCCC3)ccc2[nH]1 -1.52%, COc1ccc(NC(=O)c2c(C)oc3ccc(O)c(CN4CCN(C)CC4)c23)cc1Cl -2.49%, O=C(Nc1c(C(=O)N2CCN(c3ccc(F)cc3)CC2)oc2ccccc12)c1ccco1 -5.62%, COc1ccc(CCNC(=O)c2ccc(CS(=O)(=O)c3ccc(C)cc3)o2)cc1OC -1.43%, Cc1ccc(-c2nnc(Nc3ccc(C(N)=O)cc3)c3ccccc23)cc1S(=O)(=O)N1CCCCC1 5.03%
